{"source": "the supplement of paper PMC10338343", "note": "± gives the standard deviation. This is a selection; strong and weak results do not stand in their true shares.", "data": [{"system": "MIWI (PIWIL1) piRISC loaded with piRNA #1 (30 nt)", "experiment": "pre-steady-state target cleavage rate (min^-1); MIWI and MILI are mouse PIWI proteins and EfPiwi is from a freshwater sponge; tags in brackets are library labels; higher = faster piRNA-guided slicing of the target", "settings": "guide: piRNA #1 5'p-UGAGGUAGUAGGUUGUAUAGUAUCCAGAGG; auxiliary factor: 500 nM mouse GTSF1", "how_it_was_run": "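In Cleave-'n-Seq, a transcribed, DNA-blocked target RNA library (0.1 nM) was combined with 1 nM active affinity-purified piRISC bearing one synthetic guide, with or without 500 nM GTSF1 partner protein. Reactions ran in HEPES–potassium acetate buffer at 33 °C for 0–8 or 0–960 min. Uncleaved targets were sequenced and normalised to depth and to weakly complementary targets, three trials were pooled, and k3 was capped at 0.0001 min^-1. The pre-steady-state cleavage rate was obtained by fitting a burst-and-steady-state model.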", "values": [{"sequence": "GCUCUGGAUACUAUACAACCUACAACCUGA", "pre-steady-state target cleavage rate": "0.744 ± 0.14"}, {"sequence": "GGAGAGGAUACUAUACAACGAACUACCUCA", "pre-steady-state target cleavage rate": "0.0206 ± 0.0037"}, {"sequence": "GGAGACCAUACUAUAAACCUACUACCUCA", "pre-steady-state target cleavage rate": "0.175 ± 0.023"}, {"sequence": "GGACUGGAUACUAUACAACCUACAAGCUCA", "pre-steady-state target cleavage rate": "0.00319 ± 0.0019"}, {"sequence": "GGAGACCUUCUAUACAACCUACUACCUCA", "pre-steady-state target cleavage rate": "0.621 ± 0.077"}, {"sequence": "GGUUUGGAUACUAUACAACCUACUACCUCA", "pre-steady-state target cleavage rate": "1.81 ± 0.084"}, {"sequence": "GGAGACCUUACUAUUCAACCUACUACCUCA", "pre-steady-state target cleavage rate": "1.19 ± 0.096"}, {"sequence": "GGAGACCUAACUAUACAACCUUCAACCUCA", "pre-steady-state target cleavage rate": "0.0121 ± 0.0035"}, {"sequence": "GGACUGGAUACUAUACAACCCACUACCUCA", "pre-steady-state target cleavage rate": "0.515 ± 0.039"}, {"sequence": "CCUCUGGAUACUAUACAACCUAGUACGUCA", "pre-steady-state target cleavage rate": "0.075 ± 0.021"}, {"sequence": "GGAGACCAUACUAUUCAACCUAGUACCUCA", "pre-steady-state target cleavage rate": "0.417 ± 0.027"}, {"sequence": "GCUCUGGAUCUAUACAACCUACUACCUCA", "pre-steady-state target cleavage rate": "0.996 ± 0.074"}, {"sequence": "GGUCGGAUACUAUACAACCUACUACCUCA", "pre-steady-state target cleavage rate": "1.62 ± 0.12"}, {"sequence": "GGAGACCUAUCUAUAGAACCUACUAGCUCA", "pre-steady-state target cleavage rate": "0.00389 ± 0.0019"}, {"sequence": "GGAGACCUAUCUAUACAACCUACUAACCUCA", "pre-steady-state target cleavage rate": "0.7 ± 0.056"}, {"sequence": "GCUCUGGAUACUAUACAACCUUCUACCACA", "pre-steady-state target cleavage rate": "0.666 ± 0.042"}, {"sequence": "GGAGACCUAUGAAUACAACCUCACUACCUCA", "pre-steady-state target cleavage rate": "0.00824 ± 0.0026"}, {"sequence": "GCUCUGGAUACUAUUCAUCCUACUACCUCA", "pre-steady-state target cleavage rate": "1.42 ± 0.097"}, {"sequence": "GGAGACCUUAGUAAACAACCUACUACCUCA", "pre-steady-state target cleavage rate": "0.00718 ± 0.0027"}, {"sequence": "GCUCUGGAUACAAUACAAGCUACUACCUCA", "pre-steady-state target cleavage rate": "1.18 ± 0.067"}, {"sequence": "GGAGACCUAUCUAUACAACCUACUCCCUCA", "pre-steady-state target cleavage rate": "0.4 ± 0.041"}, {"sequence": "GCUCUGGAUAGUAUACAACCUAGUACCUCA", "pre-steady-state target cleavage rate": "0.296 ± 0.048"}, {"sequence": "GGAGUGGAUACGUAUACAACCUACUACCUCA", "pre-steady-state target cleavage rate": "1.25 ± 0.077"}, {"sequence": "CCUCUGGAUACUAUACAACCUACUUCGUCA", "pre-steady-state target cleavage rate": "0.551 ± 0.05"}, {"sequence": "GGUCUGGAUACUAUGACAACCUACUACCUCA", "pre-steady-state target cleavage rate": "1.63 ± 0.11"}, {"sequence": "GGAGAGGAUACUAUACAUCCUACUAGCUCA", "pre-steady-state target cleavage rate": "0.00683 ± 0.0037"}, {"sequence": "GGACUGGAUACUAUUCAACCUACUACCUCA", "pre-steady-state target cleavage rate": "1.64 ± 0.11"}, {"sequence": "GGUCUGGAUACUAUACUACCUACUAGCUCA", "pre-steady-state target cleavage rate": "0.391 ± 0.048"}, {"sequence": "GGAGACCUUACUAUACGAACCUACUACCUCA", "pre-steady-state target cleavage rate": "< 0.0001"}, {"sequence": "GCUCUGGAUACUAAACAACCAACUACCUCA", "pre-steady-state target cleavage rate": "0.171 ± 0.022"}, {"sequence": "GGAGAGGAGACUAUACAACCUACUACCUCA", "pre-steady-state target cleavage rate": "1.32 ± 0.11"}, {"sequence": "GGACUGGAUACUAUACAUCCUACUACCUGA", "pre-steady-state target cleavage rate": "0.531 ± 0.073"}, {"sequence": "GGAGUGGAUACUAAACAACCUACUACCACA", "pre-steady-state target cleavage rate": "0.55 ± 0.046"}, {"sequence": "GGAGUGGAUAGUAUACAACGUACUACCUCA", "pre-steady-state target cleavage rate": "0.2 ± 0.025"}, {"sequence": "GCUCUGGAUUCUAUACAACCUACUACCACA", "pre-steady-state target cleavage rate": "0.898 ± 0.063"}, {"sequence": "GGAGACCUUACUUUACAACCUUCUACCUCA", "pre-steady-state target cleavage rate": "0.225 ± 0.022"}, {"sequence": "GGUCUGCAUACUAUACAACCUACUACGUCA", "pre-steady-state target cleavage rate": "0.635 ± 0.066"}, {"sequence": "GGACUGGUUACUAUACAACCAACUACCUCA", "pre-steady-state target cleavage rate": "0.0817 ± 0.0099"}, {"sequence": "GGAGACCUAACUUUACAACCUAGUACCUCA", "pre-steady-state target cleavage rate": "0.155 ± 0.042"}, {"sequence": "GGAGACCUAUGAUAUGUACCUACGUACCUCA", "pre-steady-state target cleavage rate": "< 0.0001"}]}]}
